# Source: the RNAGym collection of RNA variant scans (doi:10.7554/elife.90254)
# The source gives no read counts; variants with many changes may rest on few reads.
# B1: OR4K15 (parent)
# chain: GUUAACGGUCAUAGGCCAUGGAAACUAGGAGCACCAUUUCGCUGCCAGUGAAGAAAUGAACAAAGAAAAUCUGGGCCAGGCAGGCAUCAAAAGAAAUAGUCUUGCGCUCAACCAGAAAGUCUGUAAUCAUUUUAAGGGUA
# Variants of: B1
# Assay: self-cleavage, relative activity (ratio to wild type); higher = more cleavage; in vitro, sequencing; the parent is a self-cleaving ribozyme
row,Variant,self-cleavage
1,U9G A36C A86U,1.36
2,A4G A55C A69G U102C U139A,2.67
3,A13G A56U U139G,0.57
4,A30G A56G G93U A140G,1.67
5,A60U A66G U122A A129G,2.15
6,A22G U38C A47U C71A,0.67
7,A36G A68G A78G,0.3
8,A22G A33C A52G U103C A134G,0.35
9,A24G A51U A66G A94G,0.69
10,A52U A90G A126U,0.79
11,A23G A36G A51C,0.57
12,U9C U72C U131C,0.2
13,A47G A82G A117U,0.53
14,A23G U39A A86G,1.45
15,A36U A60G U103C U130A,0.56
16,A18U U100C A117G,2.95
17,A66G G79U A116G,0.03
18,U19A U108C A114U U132A,0.01
19,A33G U38C A67G U87C,1.02
20,U9C U38C A69G,1.08
21,U12A A63G A89U U100C,2.04

row,Variant,self-cleavage
1,C40A G80C A96G C107G C109U U120C,0.03
2,U72C C105U A110G,0.04
3,A22G A60G A94G A111G,0.11
4,A47G A54G A98U,1.53
5,A51G A60U A66G A86G U131C,1.18
6,A23G A54G A86G,1.22
7,A27G U38A C46A,0.58
8,A82G A91G A116U,0.01
9,A63G A92G A116U,0.41
10,A4G A90G U122A,0.28
11,A30G U49C A69G U70C U131C,0.26
12,A69G A92G U108C,0
13,A5G A68G C85U,1.28
14,A30U U57A C76U A117G U124A,0.05
15,A23G A47G U131C,0.17
16,A55G A86U A117G U122C,1.84
17,A11G A56G A66G A68G A110G,0.08
18,A91G A92G U103C,0.13
19,A11G A30U A86G A111U U120A U131C,0.03
20,U9A A62U U108A,0.02
21,U9C A47U U49A A54G A78U A114G,0.24

row,Variant,self-cleavage
1,C40A A78C U87C A90G A94U,0.12
2,U100C A117G U127C G136A,1.99
3,A11G U43A U87C,1.49
4,A92G A98U U139C,1.49
5,U3C A60G A111G A118G U122C A135G,0
6,U38C A67G A118G,0.59
7,U38A A86U G137C,2.09
8,U2C A33G A47U U72C U102C,0.31
9,U2C C17U U39C A94G U103C A129G,0.23
10,A5G A89G A92G U122C,0.68
11,U37A U39C U97A A126U,1
12,U37C U39A A64C U108C,0.04
13,A82U A95U A135G,0.24
14,U19A A51U A64C U87A A118G,0.44
15,U39C U87A A129U,0.36
16,A82U A117G A118U A126U,0.1
17,U43A C61U A92C,2.52
18,A4G A89U U120C,0.59
19,U9C A52U A86C A118G,0.46
20,A47G A95G U131A,2.16
21,A11G U43C A59G A66G G137A,1.21

row,Variant,self-cleavage
1,A23G G28C U43C A63U A67G U103C G104A,0.05
2,A67U U87C A118G,0.79
3,A13G A33G U43A A82G A134G,0.27
4,A62G A86G U120C,0.37
5,A24G U37G G136U,1.07
6,A22G U72C U120G,0.18
7,A22G A51G A55C,0.69
8,U3C U9C A51G U108C,0.06
9,A24G U49C A66G U131C,0.36
10,U19C G58U A94G,1.61
11,A5G A27G A90G A111G,0.08
12,A51G A67U A96G A117G,1.45
13,A13G A47G A62G A68G,0.42
14,U2C U49C A66G A68G U127C A129G,0.32
15,A59G C77U A110G,0.34
16,G20A A36G A78G,0.47
17,A90U U122C U130C,1.35
18,A24G A94C A140G,1.23
19,U19C A68G U132C,0.83
20,A5G G15C A27G A52G,1.31
